# According to paper PMC12298351, “Novel 3,19-(N-Phenyl-3-(4-fluorophenyl)-pyrazole) Acetal of Andrographolide Promotes Cell Cycle Arrest and Apoptosis in MDA-MB-231 Breast Cancer Cells” (Pharmaceuticals, 2025):
# Test system: NCI-H322M
# Details: for Total growth inhibition (TGI): Non-Small Cell Lung; for GI50: Non-Small-Cell Lung; for CC50: read-out: 50% lethal concentration (LC50), Non-Small Cell Lung
Compound,Total growth inhibition (TGI) [µM],GI50 [µM],CC50 [µM]
C=C1CCC2C3(C)COC(c4cn(-c5ccccc5)nc4-c4cccc(Cl)c4)OC3CCC2(C)C1CC=C1C(=O)OCC1O (stereo not drawn) [1d],19.9,3.26,> 100
C=C1CCC2C3(C)COC(c4cn(-c5ccccc5)nc4-c4ccc(Br)cc4)OC3CCC2(C)C1CC=C1C(=O)OCC1O (stereo not drawn) [1h],26.4,4.2,> 100
C=C1CCC2C3(C)COC(c4cn(-c5ccccc5)nc4-c4cccc(F)c4)OC3CCC2(C)C1CC=C1C(=O)OCC1O (stereo not drawn) [1c],19.4,4.22,> 100
C=C1CCC2C3(C)COC(c4cn(-c5ccccc5)nc4-c4ccccc4)OC3CCC2(C)C1CC=C1C(=O)OCC1O (stereo not drawn) [1a],14,3.35,83.7
C=C1CCC2C3(C)COC(c4cn(-c5ccccc5)nc4-c4cccc([N+](=O)[O-])c4)OC3CCC2(C)C1CC=C1C(=O)OCC1O (stereo not drawn) [1b],> 100,1.76,> 100
C=C1CCC2C3(C)COC(c4cn(-c5ccccc5)nc4-c4ccc(OC)cc4)OC3CCC2(C)C1CC=C1C(=O)OCC1O (stereo not drawn) [1j],16.5,2.94,> 100
C=C1CCC2C3(C)COC(c4cn(-c5ccccc5)nc4-c4ccc(Cl)cc4)OC3CCC2(C)C1CC=C1C(=O)OCC1O (stereo not drawn) [1g],36.5,1.02,–
C=C1CCC2C3(C)COC(c4cn(-c5ccccc5)nc4-c4cccc(Br)c4)OC3CCC2(C)C1CC=C1C(=O)OCC1O (stereo not drawn) [1e],–,–,> 100
C=C1CCC2C3(C)COC(c4cn(-c5ccccc5)nc4-c4ccc(C)cc4)OC3CCC2(C)C1CC=C1C(=O)OCC1O (stereo not drawn) [1i],25.3,4.92,> 100
"C=C1CCC2C3(C)COC(c4cn(-c5ccccc5)nc4-c4ccc(F)cc4)OC3CCC2(C)C1CC=C1C(=O)OCC1O (stereo not drawn) [1f, 3,19-(N-Phenyl-3-(4-fluorophenyl)-pyrazole) Acetal of Andrographolide]",15.8,3.34,90.6
